Over roughly 110,000 compounds, “z-score” has its median near -0.1; the highest 2% begin near 2. The list shows a part of the results.
What follows are compounds tested against Metabotropic glutamate receptor 8 (Rattus norvegicus) (UniProt P70579) (assay: rat mGluR8 modulators via GIRK flux, primary screen, cell-based, thallium flux, HTS (AID 488969)). Conditions: HEK293 rat mGluR8, GIRK (G protein-gated inwardly rectifying potassium channel) thallium flux, FluoZin2; at 10 µM; stronger effect = higher value; submaximal glutamate (EC20) added with thallium.
UniProt P70579, sequence (P70579 whole entry, looked up): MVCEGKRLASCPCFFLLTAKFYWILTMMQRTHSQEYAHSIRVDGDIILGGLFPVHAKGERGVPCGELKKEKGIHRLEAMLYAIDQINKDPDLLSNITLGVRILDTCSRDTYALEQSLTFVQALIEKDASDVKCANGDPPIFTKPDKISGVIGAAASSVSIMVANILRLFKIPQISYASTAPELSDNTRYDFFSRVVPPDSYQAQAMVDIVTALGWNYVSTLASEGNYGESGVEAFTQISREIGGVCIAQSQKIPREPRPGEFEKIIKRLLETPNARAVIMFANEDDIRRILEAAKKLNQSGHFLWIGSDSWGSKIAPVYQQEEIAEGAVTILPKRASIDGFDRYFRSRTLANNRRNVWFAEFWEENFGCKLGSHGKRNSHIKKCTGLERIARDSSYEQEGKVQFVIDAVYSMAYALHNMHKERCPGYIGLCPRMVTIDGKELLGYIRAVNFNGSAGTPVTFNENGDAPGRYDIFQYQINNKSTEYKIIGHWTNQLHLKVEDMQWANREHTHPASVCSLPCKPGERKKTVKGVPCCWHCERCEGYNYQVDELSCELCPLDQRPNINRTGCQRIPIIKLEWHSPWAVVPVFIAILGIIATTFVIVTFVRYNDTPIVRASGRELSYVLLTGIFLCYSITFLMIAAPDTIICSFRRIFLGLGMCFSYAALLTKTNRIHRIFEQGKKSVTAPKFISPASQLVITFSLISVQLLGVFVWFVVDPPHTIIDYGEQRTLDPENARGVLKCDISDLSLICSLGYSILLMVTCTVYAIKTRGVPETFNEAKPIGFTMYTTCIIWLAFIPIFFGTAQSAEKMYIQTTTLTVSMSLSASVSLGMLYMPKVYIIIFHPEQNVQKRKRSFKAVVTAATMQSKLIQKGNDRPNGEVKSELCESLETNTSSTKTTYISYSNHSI

Row | SMILES | z-score
1 | CCc1cccc2c(C(=O)COC(=O)c3ccc([N+](=O)[O-])s3)c[nH]c12 | 0.398
2 | COc1ccccc1N/C(=N/S(=O)(=O)c1ccc(C)cc1)c1ccc(Cl)cc1 | -0.818
3 | COCCn1c(=O)[nH]c2cc(C(=O)NCc3ccccc3)ccc2c1=O | 0.41
4 | COc1ccc(N2CCN(C(=O)CN3CCN(C(c4ccccc4)c4ccccc4)CC3)CC2)cc1 | -0.0649
5 | Cc1cccc(NC(=O)CSc2nnc([C@@H]3CCCN3C(=O)OC(C)(C)C)o2)c1C | 1.54
6 | Cc1cc(C)nc(N/N=C/c2ccccc2OCc2ccc(Cl)cc2)n1 | 0.0163
7 | CCOC(=O)C1=C(COc2ccc(C)cc2)NC(=O)NC1c1cc(C)ccc1C (stereo not given) | -0.0881
8 | CCCCN(Cc1ccccc1)S(=O)(=O)c1ccc2[nH]c(=O)oc2c1 | 1.63
9 | Cc1oc(-c2ccc(Cl)cc2)nc1CS(=O)CC(=O)NCc1cccs1 (stereo not given) | -0.0359
10 | Cc1cccc(NC(=O)c2ccccc2OCC(=O)c2ccccc2)c1 | -0.226
11 | COc1cc(NC(=O)c2ccco2)ccc1NC(=O)c1ccccc1Cl | 0.0967
12 | COc1ccc(N(Cc2cc(=O)[nH]c3ccccc23)C(=O)c2ccco2)cc1 | 0.0242
13 | COc1ccc(CCNC(=O)c2ccccc2N(C)S(=O)(=O)c2ccccc2)cc1 | 1.7
14 | Cc1cccc(-c2nnc3sc(-c4ccccc4)nn23)c1 | 0.567
15 | COc1cc(C(=O)NCc2ccccc2)ccc1OC(F)F | -0.194
16 | O=C1c2ccccc2C(=O)N1CCSc1ccccc1 | -0.0757
17 | CN1CCN(C(=O)c2cc3nc(-c4ccccc4)cc(C(F)(F)F)n3n2)CC1 | -0.255
18 | CCOc1cc(CNc2ccc(N3CCCCC3)cc2)cc(Br)c1OCC(=O)NC(C)(C)C | 0.824
19 | COc1cccc(/C=N/Nc2snc(SC)c2C#N)c1 | 0.107
20 | COc1ccc(C(=O)Nc2nc(-c3ccc([N+](=O)[O-])cc3)c(-c3ccc(OC)cc3)s2)cc1 | -0.225
21 | O=C(NC1(C(F)(F)F)NC(=O)N(c2ccc(F)c(Cl)c2)C1=O)c1ccncc1 (stereo not given) | -0.112
22 | Clc1cccc(CSC2=NCCCN2)c1 | 1.31

Row | SMILES | z-score
23 | c1ccc(-c2nnc(-c3ccco3)n2-c2ccccc2)cc1 | 0.694
24 | Cc1ccc(SCC(=O)Nc2ccccc2C(=O)O)cc1 | -0.545
25 | CCCNC(=O)c1noc2c1CCc1ccccc1-2 | -1.67
26 | O=C(Cc1c(F)cccc1Cl)NCC1CCCO1 (stereo not given) | 0.148
27 | O=C(O)c1cc2c(s1)CCCC2 | 0.0889
28 | Cc1ccc(-n2nc(N)c3c(=O)oc(N(C)C)nc32)cc1 | -0.254
29 | CC(Sc1nnnn1-c1ccccc1)C(=O)Nc1ccc(Cl)cn1 (stereo not given) | -0.551
30 | O=C(NC(Cc1ccccc1)C(=O)O)/C(=C\c1ccco1)NC(=O)c1ccc(Br)cc1 (stereo not given) | -0.494
31 | CC1CCCCC1NC(=O)Cn1[nH]c(=O)c2ccccc2c1=O (stereo not given) | 0.915
32 | NC(=O)c1cc2ccccc2oc1=NCc1ccccc1 | -0.00924
33 | CC(C)CCNC(=O)CC1C(=O)N(Cc2ccccc2)C(C)c2nc3ccccc3n21 (stereo not given) | 0.168
34 | CC1=C(C(=O)Nc2cccnc2)C(c2cccnc2)n2nc(-c3cccs3)nc2N1 (stereo not given) | -0.574
35 | Cc1cc(C(=O)OCC(=O)N2c3ccccc3NC(=O)C2(C)C)c(C)n1-c1ccccc1 | 0.0368
36 | CCOC(=O)N1CCC(N(C(=O)Nc2cccc(OC)c2)C(C)CC)CC1 (stereo not given) | -0.355
37 | O=C(COc1ccccc1[N+](=O)[O-])N/N=C/c1ccccn1 | -0.144
38 | C=CCn1c(N)c(C(=O)N2CCOCC2)sc1=S | 0.315
39 | CNc1csc(C)c(C)c1=O | -0.0061
40 | Cc1ccc(NC(=O)COC(=O)CNC(=O)c2ccc(Br)cc2)c(C)c1 | -0.336
41 | Cc1cc(NC(=S)NC(=O)c2ccccc2)ccc1-c1cc2ccccc2oc1=O | -0.165
42 | COCCCNC(=S)Nc1ccc2c(c1)OCCO2 | -0.0306
43 | Cc1sc2ncnc(Sc3ccccc3C(=O)Nc3ccc(Br)cc3)c2c1C | -0.25
44 | Cc1ccc(NS(=O)(=O)c2cc(C(=O)Nc3cccc([N+](=O)[O-])c3)ccc2C)cc1 | -0.0552

Row | SMILES | z-score
45 | Cc1cc(C)n(-c2ccc(C(=O)Nc3ccc(S(=O)(=O)NCc4ccco4)cc3)cc2)n1 | -0.614
46 | O=C(/C=C/c1ccccc1)/C=C/c1ccccc1 | -0.389
47 | S=C(Nc1cccc(Cl)c1)Nc1cccc2cnccc12 | 2.74
48 | O=C(Oc1cccc2cccnc12)c1ccco1 | -0.0367
49 | CCN(CC)S(=O)(=O)c1cc(C(=O)OCC(=O)Nc2cccc(Br)c2)ccc1F | -0.903
50 | CN(C)CCCCCCCCCCC(=O)/C=N/O | 0.216
51 | COc1ccc(Cl)cc1NC(=O)COC(=O)CCCN1C(=O)c2ccccc2C1=O | -0.057
52 | O=C(Oc1ccccc1)c1cccc2cccnc12 | 0.0897
53 | COc1ccc(CC(=O)NCc2ccccn2)cc1OC | -0.156
54 | CC(=O)Oc1ccc(C(=O)Nc2nnc(C)s2)cc1 | -1.24
55 | CC(NC(=O)c1ccco1)C(c1cccs1)N1CCN(c2ccc(F)cc2)CC1 (stereo not given) | -1.05
56 | O=C1c2ccc3c4c(ccc(c24)C(=O)N1NC(=O)C(F)(F)F)CC3 | -0.584
57 | CC(C)CNC(=O)c1ccccc1NC(=O)CSCc1ccccc1 | -0.0809
58 | O=C1OC(c2ccc3c(c2)OCO3)N(C(=O)c2ccc(Cl)c(Cl)c2)c2ccccc21 (stereo not given) | -0.648
59 | O=C(Cc1c(F)cccc1Cl)Nc1ccncc1 | -0.151
60 | CC(C)(CO)NC(=O)C(c1ccccc1)c1ccccc1 | 0.05
61 | Cc1ccc(NC(=O)CCC(=O)NNS(=O)(=O)c2ccccc2)cc1C | 0.494
62 | Cc1ccc(-c2nnc(SCC(=O)Nc3ccccc3N3CCOCC3)o2)cc1 | 0.657
63 | O=C(NCC1CCCO1)C1c2ccccc2C(=O)N1C1CCCCCCC1 (stereo not given) | -0.14
64 | CCOc1cc(C)c(Cl)cc1S(=O)(=O)n1cnc2ccccc21 | -0.325
65 | CCC(C)NC(=O)Cn1c(=O)n(CCCCCC(=O)Nc2ccccc2)c(=O)c2sccc21 (stereo not given) | -0.253
66 | COCC(C)NC(=O)NC1(C(F)(F)F)Oc2ccc(Cl)cc2O1 (stereo not given) | 0.0254

Row | SMILES | z-score
67 | CCCCNC(=O)c1cc(-c2ccc(OC)c(OC)c2)on1 | 0.106
68 | Cc1ccc(CN(C(=O)c2sc3ccccc3c2Cl)C2CCS(=O)(=O)C2)cc1 (stereo not given) | 0.2
69 | CC1CCN(c2nc(-c3cccnc3)nc3scc(-c4ccccc4)c23)CC1 | -0.234
70 | Cc1cc(C)nc(/N=C2\NC(=O)CC3C(=O)NCCN23)n1 (stereo not given) | -0.12
71 | CC(C)c1nnc(NC(=O)CCN2C(=O)c3ccccc3C2=O)s1 | 0.268
72 | O=C(Nc1ncc(Cc2cccc(Cl)c2)s1)c1cccs1 | -0.167
73 | Oc1ccccc1/C=N/c1c(-c2ccco2)nc2ccccn12 | -0.278
74 | COc1ccc(CCNc2nc(-c3ccco3)cc(C(F)(F)F)n2)cc1OC | -0.906
75 | COC(=O)/C=c1\sc2n(c1=O)C(C)=CC(C)(C)N=2 | -0.611
76 | CN1/C(=C/C2CC(=O)N(c3cccc4ccccc34)C2=O)C(C)(C)c2ccccc21 (stereo not given) | -0.674
77 | COc1ccc2c(c1)cc(C(=O)O)n2C | 0.0275
78 | COc1cc(Cl)c(C)cc1NC(=O)COC(=O)/C=C/c1c(C)nn(C2CCS(=O)(=O)C2)c1Cl (stereo not given) | -0.286
79 | O=C(NCCOCCOCCNC(=O)c1cccnc1)c1cccnc1 | 0.119
80 | Nc1cc(-c2ccc(Cl)cc2)nn1S(=O)(=O)c1ccc(Cl)cc1 | -0.0623
81 | Clc1ccc(-c2nnc3c4ccccc4nc(N4CCOCC4)n23)cc1Cl | -0.168
82 | COC(=O)C1=C(C)N(CCc2ccc(OC)cc2)C(=O)C1 | 2.28
83 | Cc1onc(-c2ccccc2Cl)c1C(=O)N1CC(C)OC(C)C1 (stereo not given) | -0.52
84 | CCCn1nnc(NC(=O)COc2ccccc2Cl)n1 | 0.651
85 | CCCCCNC(=O)C(C#N)c1nc2ccccc2nc1N1CC(C)OC(C)C1 (stereo not given) | -0.47
86 | CCCCSc1c(C)c2cc3c(cc2[nH]c1=O)OCO3 | -1.07
87 | O=C(CNC(=S)N(Cc1ccccc1)Cc1cccnc1)NC1CCCCC1 | -0.159
88 | CCC(=O)Nc1ccc(S(=O)(=O)Nc2cccc(C)c2)cc1OC | -0.094

Row | SMILES | z-score
89 | COc1cccc(-c2csc(N3CCN(C(=S)Nc4cccc(Cl)c4)CC3)n2)c1 | 0.143
90 | COc1ccccc1S(=O)(=O)Cc1ccc(C(=O)NC(C)c2ccc3c(c2)OCCO3)o1 (stereo not given) | -0.0397
91 | CN(C)CCCN(C(=O)c1cc2ccccc2oc1=O)c1nc2ccc(F)cc2s1 | 0.194
92 | C(=C\c1ccccc1)/CSc1nnc(-c2cccnc2)o1 | -1.49
93 | Clc1cc(Cl)c2nc(N3CCOCC3)sc2c1 | -0.475
94 | CCOC(=O)CSc1nc2c(sc3ccccc32)c(=O)n1CCCN1CCOCC1 | 0.498
95 | Cc1cc(N2CCOCC2)nc(SCC(=O)c2ccc(Cl)cc2)n1 | -0.547
96 | CCCCOC(=O)Cn1c(=O)oc2ccc(C)cc21 | 0.171
97 | COc1ccc(NC(=O)N(C2CCCCC2)C(C)c2cccnc2)c(OC)c1 (stereo not given) | -0.0677
98 | CC1CCc2nc(NC(=O)c3ccc(S(=O)(=O)N4CCCc5ccccc54)cc3)sc2C1 (stereo not given) | -0.137
99 | Cc1ccc(C(C(=O)NC2CCCC2)N(C(=O)Cc2cccs2)c2ccc3c(c2)OCCO3)cc1 (stereo not given) | -0.449
100 | Cc1[nH]c2ccccc2c1C(=O)CN1C(=O)NC2(CC(C)CC(C)(C)C2)C1=O (stereo not given) | -0.266
101 | O=C1CC(c2ccccc2Cl)C2=C(COC2=O)N1 (stereo not given) | -0.181
102 | COc1ccc(C2C(C(=O)Nc3ccccn3)=C(C)Nc3ncnn32)c(OC)c1 (stereo not given) | 0.84
103 | COCc1nc2ccccc2n1Cc1ccc(Br)cc1 | -0.445
104 | Cc1ccccc1C(=O)Nc1sc(C)c(C)c1C(=O)c1ccccc1 | -0.236
105 | O=C(Nc1cccc(Cl)c1)Nc1cc(S(=O)(=O)N2CCCCC2)ccc1Cl | 0.00193
106 | CC(OC(=O)C1CCN(S(=O)(=O)c2ccccc2)CC1)C(=O)Nc1ncc(Cl)cc1Cl (stereo not given) | -0.265
107 | O=C(c1ccco1)N1CCN(S(=O)(=O)c2ccc(Oc3ccccc3)cc2)CC1 | 0.84
108 | COC(=O)C1=C(C)N=C2SCCC(=O)N2C1c1ccc(OC(=O)c2ccco2)cc1 (stereo not given) | 1.59
109 | Nc1nc(SCc2ccc(Cl)cc2)[nH]c(=O)c1-c1ccccc1 | 0.163
110 | O=c1[nH]cnc2nc(-c3ccccc3)c(-c3ccccc3)nc12 | 0.419
